Data reported in article PMC12136788.
This is one part of the list.

T1: UNK ZnF1-3 (human, UniProt Q9C0B0 31-174)
T1 sequence: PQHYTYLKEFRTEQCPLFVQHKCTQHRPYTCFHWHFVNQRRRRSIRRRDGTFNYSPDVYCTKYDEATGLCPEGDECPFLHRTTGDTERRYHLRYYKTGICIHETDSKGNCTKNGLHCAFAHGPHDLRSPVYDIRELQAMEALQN

B1: chr22:32879901:32879902:+_ENSG00000100225_ENST00000397426|hu_mus|hu_hu_hu_mus_False|98_98 (ssRNA)
RNA: GGGAGUUCUACAGUCCGACGAUCCUCUUCCAUACUCGCAUUAUCUUGAAUUGACUCAGCUUCAACAUUUUGACUAGGCCCUUCCAUACUGUCAUCAGUCCAGGCAUCAAAUGGGGUGGCCUGUCCUUGGGAUGAAUCAGUCCCCAACAGAGGAUUGAGCAUCA
B2: chr1:58468927:58468928:-_ENSMUSG00000026034_ENSMUST00000148330|mus_mus|mus_mus_mus_hu_False|38_98 (ssRNA)
RNA: GGGAGUUCUACAGUCCGACGAUCAAUUACUGAAAAAUGAAAGAUGUACCUUAGCUAUGUACUUAAUGAACCAAAUUACCCAAACAAAAUAAACAUGUUUACAAAUUAAUGUUAAGAAUUUACAAAGCUGUACAAAAUAACUUACAACAGAGGAUUGAGCAUCA
B3: chr4:62795864:62795865:+_ENSMUSG00000028358_ENSMUST00000107415|mus_hu|FALSE|FALSE (ssRNA)
RNA: GGGAGUUCUACAGUCCGACGAUCCAGAGUCUAAAUCAAAUCUGAAGAAACAAAAUGAACCCCCAAACAAGGUAAAAAUUGCUAAAAUGUUAGGGAGAGAAAUUAUUAGGGAGUGGAGACAGUAUCUAUACUUCUCUGAAAAAUCAACAGAGGAUUGAGCAUCA
B4: chr7:65705475:65705476:+_ENSG00000169902_ENST00000304842|hu_hu|hu_hu_hu_mus_True|48_68 (ssRNA)
RNA: GGGAGUUCUACAGUCCGACGAUCUCUAUUCGGUGAUGGCACUCCAUGGCAUGCUGGCCCAGGUAAAACACAGUCACAGAACUAAUCACCAGACAUGCCAAGAGUAAGUUCUGCUUCAGCUUCCCAACCAUCUUGAUGUGGUUACAACAGAGGAUUGAGCAUCA
B5: 111595278_111595398_3439_3pUTR_ENSG00000170145_ENST00000304987|human|control|control (ssRNA)
RNA: GGGAGUUCUACAGUCCGACGAUCCAACUUGCAUCAGCAGCUAAGAACUUAGGAUUCAAUGACAAAGCACAGCUUUCCUUUAUUUCCUGUGCAUCUGAUUUCCUGAUGUCUUCUUGAUUUGCCUUGUAGCAAUAUGUGGUUGCUCAACAGAGGAUUGAGCAUCA
B6: 70726784_70726904_1073_CDS_ENSG00000165732_ENST00000354185|human|control|control (ssRNA)
RNA: GGGAGUUCUACAGUCCGACGAUCCAACAUCUGGUCCACUUCAUCCAGGACAACAUGCUUAAGUUUGGUGAGAUCUAGUUUGCCAUUCUGUAUGUGGUCUUUGAUACGACCUGGUGUUCCAACCAGGAUAUCAAUCCCAUUCCUCAACAGAGGAUUGAGCAUCA
B7: chr11:4127340:4127341:+_ENSG00000167325_ENST00000300738|hu_mus|hu_hu_hu_mus_False|58_58 (ssRNA)
RNA: GGGAGUUCUACAGUCCGACGAUCGGCAUAGUCAGGGUGCUUCGUGGUCAAGGUCGCGGCUGUCUCAGCAGCCAGGGUAUCUAGUUCCACUGUGGUGACCCCACUAUAUAGGCCUUGGAUUACUUUCAUGGUGAUCUGAGCAGGCAACAGAGGAUUGAGCAUCA
B8: chr5:128440902:128440903:+_ENSG00000066583_ENST00000173527|hu_mus|hu_hu_hu_mus_True|38_38 (ssRNA)
RNA: GGGAGUUCUACAGUCCGACGAUCUUGAACGGUGCUGCCAAGUCCUUUGGGGUAUUGUUCCGUUAUGAUAACUGGAAUCCCUAAGAUCCGAGCUCCUUGCAACAAUCUCUGUCCCACACUAAUGAUGUCCCCAAAGUAUUUGAUCAACAGAGGAUUGAGCAUCA
B9: chr7:141441981:141441982:+_ENSG00000106028_ENST00000265304|hu_mus|hu_hu_hu_mus_False|18_58 (ssRNA)
RNA: GGGAGUUCUACAGUCCGACGAUCCUCAUGUCUUACAAACUGACGAAAUACCUGUAACACAGGUCUUCGAAACAUGGCUUCUAUUUUUCUUACAACCUAAUCUUUAGGCUUUUCCUACCUGACGAUCAGAAAAGAGAAAAAUGACAACAGAGGAUUGAGCAUCA
B10: 70194340_70194460_2252_CDS_ENSG00000131626_ENST00000253925|human|control|control (ssRNA)
RNA: GGGAGUUCUACAGUCCGACGAUCGCGCCCACUGCCCGGAGGGGAGGAGCUAGCAAGCGAGGAAGCAGGGUAGGGGGGAAUGGAGCUCAUUGAUCUAAAACGACCAAGAUUGUCUAGACUUCCACUGCCAACUCGACUUUCAAUCAACAGAGGAUUGAGCAUCA
B11: 117584449_117584569_2178_CDS_ENSMUSG00000025571_ENSMUST00000138299|mouse|control|control (ssRNA)
RNA: GGGAGUUCUACAGUCCGACGAUCUGGCCCCCCAAUCCACCCUGUCCCUGUCUGCUUAACAGAAGCAGCUCCUCCCCAGUUACUCACAUUGUUGUCUUGGGGCUUAUGAGCCCAGUUCUGCUGGGGACCAGGCUUGAGAGACUCCAACAGAGGAUUGAGCAUCA
B12: chr1:219384882:219384883:+_ENSG00000143353_ENST00000366928|hu_mus|FALSE|FALSE (ssRNA)
RNA: GGGAGUUCUACAGUCCGACGAUCGCUCACUCCUAGAGAUUUCAGUUUUGAGUUUGUCUCCUUGCCCCAAGCAUGCAGAACUAGGUUAUCUGCAGAGCCGUGACACUGGAAGAGCUCAGGGAGCAUGCGGCCACCUUGCUGAAGCAACAGAGGAUUGAGCAUCA
B13: chr18:48442549:48442550:+_ENSG00000082212_ENST00000321341|hu_hu|motif|central (ssRNA)
RNA: GGGAGUUCUACAGUCCGACGAUCAAUUGAUCUAACAUGACCUCUGUCUGAGAUCGAAAUAAAUAAUCCCUUAGGUCUUCGGAAGAUGUGUCCAUACUGGGAGCAGGCAAGACCAACCGUCGGUGUAUAUACAAUUGGCAUUAACAACAGAGGAUUGAGCAUCA
B14: chr16:94913618:94913619:+_ENSMUSG00000022897_ENSMUST00000122284|mus_hu|FALSE|FALSE (ssRNA)
RNA: GGGAGUUCUACAGUCCGACGAUCGUCAUGUAAUGUGCAGGACCUGUAUUAGCAGAAAAUUGGUAUGUUGGAUGUCCAGCUAUGCCAGUCUCUUGGCGGGGAUUGGAGUAGACGGUCAAAUUAACGUCCAUAGCUCCAUUCUGUCAACAGAGGAUUGAGCAUCA

target: T1, UNK ZnF1-3; assay: nsRBNS (natural sequence RNA bind-n-seq); RBNS binding buffer (assumed for nsRBNS): 25 mM Tris pH 7.5, 150 mM KCl, 3 mM MgCl2, 0.01% Triton X-100, 500 ug/ml BSA, 20 U/ml SUPERase-In, 4 C; UNK is unkempt and MSI1 is Musashi-1; names of the RNAs are library labels; protein concentration not given here; high values mean tight binding

**Q.** With B1 as the binder, how does the binding signal read?
**A.** 1.23 enrichment R

**Q.** Which binding signal does the source give for B2 here?
**A.** 0.849 enrichment R

**Q.** B3 was tested. Which binding signal did it give?
**A.** 1.56 enrichment R

**Q.** How did the binding signal turn out when B4 was run?
**A.** 0.469 enrichment R

**Q.** B5 was tested. Which binding signal did it give?
**A.** 0.59 enrichment R

**Q.** For B6, which binding signal is on record?
**A.** 0.475 enrichment R

**Q.** B7 was tested. Which binding signal did it give?
**A.** 0.991 enrichment R

**Q.** How did the binding signal turn out when B8 was run?
**A.** 0.727 enrichment R

**Q.** For B9, which binding signal is on record?
**A.** 0.609 enrichment R

**Q.** Which binding signal does the source give for B10 here?
**A.** 1.49 enrichment R

**Q.** For B11, which binding signal is on record?
**A.** 0.64 enrichment R

**Q.** B12 was tested. Which binding signal did it give?
**A.** 1.15 enrichment R

**Q.** With B13 as the binder, how does the binding signal read?
**A.** 1.16 enrichment R

**Q.** B14 was tested. Which binding signal did it give?
**A.** 0.917 enrichment R
